Results as given in PMC6919601, “Identification of Plasmodium dipeptidyl aminopeptidase allosteric inhibitors by high throughput screening” (PLoS ONE, 2019).
Where “and” joins values, the source holds several entries; their conditions need not be identical. Identical values can stand only once. Out of some 110,000 compounds screened, about 230 (0.21%) showed an effect of 50% or more. Some of the results follow.

These compounds were tested against DPAP1 (Plasmodium falciparum, UniProt Q8IIJ9) (assay: primary screen, percent inhibition; read by cleavage of a fluorogenic dipeptide substrate; higher = more effect of the substance).
Sequence of DPAP1 (Q8IIJ9 whole entry, looked up): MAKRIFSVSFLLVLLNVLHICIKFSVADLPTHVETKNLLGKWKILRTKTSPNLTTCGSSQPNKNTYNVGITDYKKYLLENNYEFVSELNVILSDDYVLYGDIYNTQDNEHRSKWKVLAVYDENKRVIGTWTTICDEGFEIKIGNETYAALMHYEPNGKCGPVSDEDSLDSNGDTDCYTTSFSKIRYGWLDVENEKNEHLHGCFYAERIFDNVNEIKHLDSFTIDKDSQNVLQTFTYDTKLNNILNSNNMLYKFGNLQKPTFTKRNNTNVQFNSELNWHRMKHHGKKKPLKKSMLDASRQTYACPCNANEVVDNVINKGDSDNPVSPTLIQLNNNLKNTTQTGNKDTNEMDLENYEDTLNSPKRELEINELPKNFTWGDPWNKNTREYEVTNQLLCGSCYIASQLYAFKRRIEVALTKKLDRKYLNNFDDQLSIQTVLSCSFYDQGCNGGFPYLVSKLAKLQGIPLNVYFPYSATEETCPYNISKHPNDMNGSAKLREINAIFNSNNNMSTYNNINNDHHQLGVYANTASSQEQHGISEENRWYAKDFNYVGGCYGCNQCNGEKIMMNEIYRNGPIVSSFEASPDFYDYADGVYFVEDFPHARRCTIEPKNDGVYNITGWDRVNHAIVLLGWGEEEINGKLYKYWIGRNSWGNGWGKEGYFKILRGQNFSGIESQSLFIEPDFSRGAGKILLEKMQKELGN
Set-up: species or system P. falciparum D10 trophozoite lysates; single well
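Note: 30 min substrate incubation versus DMSO and 10 µM JCP410 controls.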

Compound	% Inhibition @ 10 uM
CCc1cccc(NC(=O)c2ccc3c(c2)OCO3)c1	-1.86%
Cc1ccc2[nH]c(SCc3ccccc3C)nc2c1	25.2%
CCOC(=O)N1CCC(NC(=O)CCCn2nc(C)c3sc4ccccc4c3c2=O)CC1	-6.82%
CC(=O)N1CCC(N2CCN(c3ncccn3)CC2)CC1	0.273%
O=c1oc(-c2ccccc2)nc2sc3c(c12)CCCCC3	0.219%
O=C(Cc1c2ccccc2nc2ccccc12)c1ccccc1	3.95%
O=C(Cc1c(C(=O)O)[nH]c2ccccc12)NCc1cccnc1	2.83%
CCOC(=O)c1c(CN2CCOCC2)n(C2CCCCC2)c2cc(Br)c(O)cc12	1.76%
Cc1ccc(-n2nc(C)c3c(C)c(CCC(=O)N4CCC5(CC4)OCCO5)c(C)nc32)cc1	-0.72%
COc1ccc(-c2cc3c(=O)n(CC(=O)NCCCN4CCCC4=O)ncn3n2)cc1	3.67%
COc1cc(NC(=O)CN2C(=O)c3ccccc3C2=O)c(OC)cc1Cl	-0.622%
COc1ccc(C(O)(c2ccc(OC)cc2)c2cccc(F)c2)cc1	3.24%
Cc1ccc(CN2C(=O)N/C(=C/c3ccccc3OCC(=O)Nc3ccc(F)cc3)C2=O)cc1	11.1%
CCOC(=O)CN(C)Cc1cccc(Br)c1	-3.42%
COc1cc(NC(=O)c2cnn3c(C(F)F)cc(-c4ccc(C)cc4)nc23)c(C(C)=O)cc1OC	-11.6%
CC1CCCN(S(=O)(=O)c2cccc(-c3cn4ccccc4n3)c2)C1 (centres unmarked)	1.74%
CCN1C(=O)c2cccc3c(NC(=O)c4ccc(S(=O)(=O)N5CCCCC5)cc4)ccc1c23	2.92%
CS(=O)(=O)C1=NN2C(=N)/C(=C\c3ccc(O)c(O)c3)C(=O)N=C2S1	0.208%
CCCCCOc1ccc2c(C)cc(=O)oc2c1	1.48%
Cc1cc(-c2ccc(C)c(S(=O)(=O)N(Cc3ccco3)C(C)c3ccccc3)c2)on1 (centres unmarked)	-0.166%
CCOc1ccc2c(c1)c(C(=O)O)c(C)n2C	-0.197%
CCN(CC)C(=O)COc1cc(C)c(Cl)c(C)c1	6.69%
Cc1ccc(S(=O)(=O)CC(=O)Nc2ccccc2Cl)cc1	-9.28%
CCOc1ccc2nc(SCC(=O)N3CCc4ccccc4C3)sc2c1	0.343%
Cc1ccc(S(=O)(=O)c2nnn3c2nc(N2CCCCC2)c2ccccc23)cc1C	-3.08%
O=S(=O)(Nc1ccc(Oc2ccc(NS(=O)(=O)c3cccs3)cc2)cc1)c1cccs1	9.33%

Compound	% Inhibition @ 10 uM
CN(C)CCN(C)C1CCN(Cc2ccccc2)CC1	0.162%
COc1cc(CN2CCN(Cc3ccccc3C)CC2)cc2c1OCO2	-5.98%
COc1ccc(OC)c(NC(=O)CN(c2cc(Cl)cc(Cl)c2)S(C)(=O)=O)c1	-3.75%
Cc1ccc(N2Cc3ccccc3C2=O)cc1	-5.41%
C=CCSc1nc(=O)c(CC)c(O)n1C(C)CC (centres unmarked)	0.827%
Cn1ncc2c(NCc3ccc4c(c3)OCO4)ncnc21	-0.757%
O=S(=O)(c1ccc(Oc2ccccc2Cl)c(S(=O)(=O)N2CCCC2)c1)N1CCCC1	-7.62%
COc1ccc(NC(=O)CN(c2ccc(C34CC5CC(CC(C5)C3)C4)cc2)S(C)(=O)=O)c(OC)c1	-1.98%
COCCCNC(=O)CCc1c(C)nc2c(c(C)nn2-c2ccc(C)cc2)c1C	-2.45%
CCOC(=O)c1cc2c(=O)n3ccccc3nc2n(C)/c1=N\C(=O)c1ccccc1C(F)(F)F	-2.04%
CCCC(C)NC(=O)c1cc(-c2ccccc2)nc2ccccc12 (centres unmarked)	-15.7%
O=C1NC(=O)N(c2cccc3ccccc23)C(=O)/C1=C\c1cc2ccccc2[nH]1	5.66%
Oc1ccc(CSc2nc3ccccc3s2)c2cccnc12	2.57%
CN(C)CN1C(=O)S/C(=C/c2ccccc2F)C1=O	-1.32%
COc1ccc(CC(=O)Nc2ccc(Cl)c(Cl)c2)cc1	-0.969%
CN(Cc1ccc(Cl)c(Cl)c1)CC(O)c1ccccc1 (centres unmarked)	3.15%
CC1=C(C(=O)Nc2ccc(Cl)cc2)C(c2cccs2)NC(=O)N1 (centres unmarked)	3.61%
CCN(CC)C(=S)NC(=O)/C=C/c1ccc(F)cc1	-5.97%
CC(C)(C)c1ccc(C2=N/C(=C\c3ccc4c(c3)OCO4)C(=O)O2)cc1	-3.89%
COc1ccc(Cc2nnc(C(=O)NC(C)C)o2)cc1OC	1.49%
OCCN(Cc1ccccc1)Cc1ccccc1F	-4.37%
CC(=O)C1=C(O)C(=O)N(CC#N)C1c1ccc(O)cc1 (centres unmarked)	-2.74%
O=C(Nc1ccc(F)cc1F)c1cnn2c1NC(c1cccs1)CC2C(F)(F)F (centres unmarked)	0.992%
CN1CCN(c2nnc(-n3cccc3)s2)CC1	-3.47%
O=S(=O)(Nc1ccccc1)c1ccc(C2CCCCC2)cc1	-3.55%
O=C1Nc2c(c(=O)[nH]c(=O)n2Cc2ccccc2)C1(NS(=O)(=O)c1ccccc1)C(F)(F)F (centres unmarked)	5.3%

Compound	% Inhibition @ 10 uM
CC1C(c2ccccc2)N(C)CCC12NC(=O)NC2=O (centres unmarked)	-2.51%
O=C(NCC1CCCO1)C1CCC(CNS(=O)(=O)c2ccccc2)CC1 (centres unmarked)	-2.72%
O=C(NC1=NCCS1)c1ccccn1	-3.21%
Cc1ccccc1C1N(c2ccccn2)C(=O)C2CCCN21 (centres unmarked)	1.23%
CCCOc1cccc(-c2cc(C(=O)NCC3CCCO3)c3ccccc3n2)c1 (centres unmarked)	-4.15%
Cc1cc(C)cc(Oc2c(C(F)(F)F)oc3cc(OCC(=O)N4CCCCC4)ccc3c2=O)c1	-5.51%
Cc1nc2c(Cl)cc(Cl)cc2c(=O)n1-c1ccccc1F	2.05%
Cc1[nH]nc(-c2ccccc2)c1Br	-4.35% and -4.93%
O=c1cc(-c2ccccc2)c2ccc3c(c2o1)CN(c1cccnc1)CO3	6.01%
Cc1cc(C)n(-c2nc(-c3ccccc3)cc(-c3ccc(Br)cc3)n2)n1	4.63%
O=C(c1cccc(S(=O)(=O)N2CCCCC2)c1)N1CCCCC1	-5.41%
O=C(c1ccccc1[N+](=O)[O-])N1CCCCCC1	-8.39%
COc1cccc(C2C(C(=O)c3ccccc3)=C(O)C(=O)N2CCN2CCOCC2)c1 (centres unmarked)	0.205%
CC1CCCN(CCCNC(=O)c2nn(C)c3c2CS(=O)(=O)c2ccccc2-3)C1 (centres unmarked)	-0.495%
C=CCn1c(SCC(=O)Nc2ncc3c(n2)CC(c2ccccc2)CC3=O)nnc1-c1ccccc1 (centres unmarked)	-1.47%
CCOc1ccccc1NC(=O)C1=C(C)NC(=O)NC1c1ccccc1Br (centres unmarked)	-2.6%
Cc1nc2sccn2c1-c1csc(Nc2ncccn2)n1	-0.711%
CC1(C)CC(=O)C2=C(C1)NC(=O)CC2c1ccccc1 (centres unmarked)	-2.2%
O=C(O)c1ccc(-n2c(S)nnc2-c2ccc(Br)cc2)cc1	-1.24%
COc1cc(OC)c(CN2CCN(C)CC2)cc1Br	3.1%
CCOC(=O)c1c(CN(C)C)n(C)c2cc(Br)c(O)cc12	0.708%
COCc1cc(O)n2nc(Cc3ccccc3)c(-c3ccc(Cl)cc3)c2n1	-1.66%
NC(=O)C1CCN(C2CCCCCCC2)CC1	-5.44%
Cn1c2ccccc2c2c(C(=O)N3CCN(Cc4ccccc4)CC3)cn(C3CCCC3)c(=O)c21	3.48%
CC1CC(C)CN(C(=O)c2cc3sccc3n2C)C1 (centres unmarked)	0.291%
CCOCCCNCc1c(Cl)cccc1Cl	0.387%

Compound	% Inhibition @ 10 uM
COc1ccc(CNC(=O)c2ccc(Br)o2)cc1	3.67%
COc1ccc(/N=C/c2c(C)nn(-c3ccccc3)c2S)cc1	-5.34%
Cc1nc2ccccc2c2oc(C(=O)NCCCN3C(C)CCCC3C)cc12 (centres unmarked)	-0.0115%
CCCCN(C)C(=O)Cn1ncc2c3ccccc3n(C)c2c1=O	-1.92%
CCN(CC)C(=O)Cn1cc(SCc2ccccc2F)c2ccccc21	1.39%
O=C(Nc1ccc([N+](=O)[O-])cc1)c1c(F)cccc1F	-4.08%
Cc1nc(SCC(=O)N2CCC(C)CC2)c2c3c(sc2n1)CCC3	-0.545%
CCC(C)(C)C1CCc2c(sc(NC(=O)CCC(=O)O)c2C#N)C1 (centres unmarked)	2.36%
CCCC1=C(C(=O)OCC)C(c2ccc3ccccc3c2)C(C#N)=C(N)O1 (centres unmarked)	4.66%
COc1cc(NC(=O)c2scc3c2OCCO3)c(OC)cc1Cl	0.316%
COc1ccccc1CN=C(N)N	1.63%
CCCC1CCc2c(sc(NC(=O)CCCC(=O)O)c2C#N)C1 (centres unmarked)	1.4%
Cc1cc(O)c(C(=O)/C=C/c2ccccc2Br)c(=O)o1	-3.03%
O=C(c1nn2c(C(F)(F)F)cc(-c3ccco3)nc2c1Br)N1CCCC1	0.907%
COc1ccc(-c2cc(C(=O)NCCN3CCOCC3)c3ccccc3n2)cc1OC	-1.61%
O=C(Nc1ccc(S(=O)(=O)Nc2nccs2)cc1)Nc1cccc(Cl)c1	-5.13%
CCCC(=O)NC(c1ccc(OC)cc1)c1c(O)ccc2ccccc12 (centres unmarked)	1.86%
O=C(O)C1CCCCC1C(=O)Nc1ccc(Cl)c(Cl)c1 (centres unmarked)	-11.4%
CCN1C(=O)N/C(=C/c2ccc(OCc3cccc(C(=O)O)c3)c(Cl)c2)C1=O	0.795%
CCOC(=O)C1CCCN(Cc2ccc(F)cc2F)C1 (centres unmarked)	6.18%
CC1=C(C(=O)OCc2ccc(C)cc2)C(c2cccc(Cl)c2)CC(=O)N1 (centres unmarked)	0.8%
Nc1nnc(CC(=O)N2CCOCC2)o1	0.558%
OCCN1CCN(Cc2ccc(F)c(Br)c2)CC1	-3.04%
